Potency data for 90 molecules are collected here from PubChem BioAssay AID360 (National Center for Advancing Translational Sciences (NCATS), 2006).

Screen size: about 48,000 compounds; about 550 (1.1%) were called active. Inconclusive results (about 4%) are left out. Rule as the data show it: active = potency below about 15 µM; inconclusive = mostly about 16 µM to 33 µM; inactive = weaker than that. Some of the results follow.
Potency is read from the fitted curve at half-maximal effect.

For the assay, the target named is Lysosomal acid glucosylceramidase (Homo sapiens) (UniProt P04062). The experiment in a line: Glucocerebrosidase.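 Also: the screen sought inhibitors.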 Particulars: purified enzyme, resorufin glucoside fluorescence (screen aimed at inhibitors), 20 min. The method, boiled down: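 Wild-type enzyme at 0.2 nM final in 50mM citric acid/KH2PO4, 10mM sodium taurocholate, 0.01% tween-20, pH 5.9, with resorufin beta-D-glucopyranoside at 30 uM final. Compounds titrated, 20 min at RT, red fluorescence read; AC50 from titration.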
Sequence of UniProt P04062 (P04062 whole entry, looked up): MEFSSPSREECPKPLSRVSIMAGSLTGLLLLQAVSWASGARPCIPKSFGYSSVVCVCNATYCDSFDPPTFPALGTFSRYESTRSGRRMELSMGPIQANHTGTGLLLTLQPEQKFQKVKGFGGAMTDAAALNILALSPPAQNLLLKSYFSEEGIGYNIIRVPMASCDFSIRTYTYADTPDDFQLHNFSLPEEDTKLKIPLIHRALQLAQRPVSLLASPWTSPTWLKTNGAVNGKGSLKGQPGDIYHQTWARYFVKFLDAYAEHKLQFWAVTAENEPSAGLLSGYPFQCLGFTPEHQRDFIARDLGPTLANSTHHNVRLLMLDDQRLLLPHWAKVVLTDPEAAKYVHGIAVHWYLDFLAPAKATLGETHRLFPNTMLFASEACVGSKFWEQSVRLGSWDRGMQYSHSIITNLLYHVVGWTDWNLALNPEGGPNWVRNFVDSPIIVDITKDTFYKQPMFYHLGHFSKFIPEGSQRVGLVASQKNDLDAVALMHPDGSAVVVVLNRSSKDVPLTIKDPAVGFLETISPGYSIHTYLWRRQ
Take `CCOc1cc(-c2nn3cnnc3s2)cc(OCC)c1OCC`: the Potency was inactive: > 76.9 µM.

Consider `Cc1noc(C)c1CSc1nc2ccccc2c(=O)n1-c1ccccc1`, for which the Potency is inactive: > 76.9 µM.

As for `Cc1ccc(SC/C(O)=C(\C#N)c2nc3ccccc3s2)cc1`, the Potency was inactive: > 76.9 µM.

As to `COc1ccc(CNC(=O)C(C)N(Cc2ccco2)C(=O)c2snc(C(N)=O)c2N)cc1` (stereo not given), the Potency was inactive: > 76.9 µM.

Consider `C=CCn1c(COc2ccccc2F)nnc1SCC(=O)NC(=O)NCc1ccco1`, for which the Potency is inactive: > 76.9 µM.

As to `CCNc1nc(SCC(=O)OC)nc(N2CCOCC2)n1`, the Potency is inactive: > 76.9 µM.

For the molecule `N#C/C(C(=O)N1CCOCC1)=C1\Nc2ccccc2S1`, the Potency was inactive: > 76.9 µM.

In the case of `COc1ccc(CC(C(=O)Nc2cccc(F)c2)c2nn[nH]n2)c(OC)c1` (stereo not given), the Potency is inactive: > 76.9 µM.

For `COc1ccc(OC)c(NC(=O)CCNS(=O)(=O)c2cccs2)c1`, the Potency is inactive: > 76.9 µM.

As to `COc1ccc(/C(O)=C2/C(=O)C(=O)N(CCN(C)C)C2c2ccc(OC)c(OC)c2)c(C)c1` (stereo not given), the Potency is inactive: > 76.9 µM.

In the case of `CC(C)c1ccc(NC(=O)C2CC(=O)N(C(C)C)C2)cc1` (stereo not given), the Potency is inactive: > 76.9 µM.

Turning to `Cc1cccn2c(=O)c3cc(C(=O)Nc4ccc(N(C)C)cc4)n(C)c3nc12`, the Potency was inactive: > 76.9 µM.

On to `CN(C)CCCNC(=O)CC(c1ccc(F)cc1)c1ccco1` (stereo not given), for which the Potency was inactive: > 76.9 µM.

Regarding `CCOC(=O)C(NC(=O)c1cccnc1)(Nc1cccc(C)n1)C(F)(F)F` (stereo not given), the Potency was inactive: > 76.9 µM.

For the molecule `COc1ccc(OC)c(NC2=NC3(CCCCC3)N=C(N)N2)c1`, the Potency was inactive: > 76.9 µM.

Turning to `O=C(CSc1nnc(CNC(=O)c2cccs2)o1)Nc1ccc2c(c1)OCO2`, the Potency was inactive: > 76.9 µM.

For the molecule `CCCCc1cc(=O)oc2cc(OCc3nn[nH]n3)c(Cl)cc12`, the Potency was inactive: > 76.9 µM.

Take `O=C(Nc1ccc(OC(F)F)c(Cl)c1)Nc1ccc2c(c1)OCO2`: the Potency was inactive: > 76.9 µM.

With `Cc1ccc(C(=O)NCc2ccc3c(c2)OCO3)cc1S(=O)(=O)N1CCCCC1`, the Potency is inactive: > 76.9 µM.

Consider `O=C(c1cccnc1)N1C2CCC1CC(O)(c1ccc(F)cc1)C2` (stereo not given), for which the Potency was inactive: > 76.9 µM.

As for `CCC(=O)N1CCc2cc(S(=O)(=O)CCC(=O)Nc3ccc(C)c(F)c3)ccc21`, the Potency was inactive: > 76.9 µM.

With `COc1cc2c(cc1OC)CN(C(=O)CSc1n[nH]c(N)n1)CC2`, the Potency is inactive: > 76.9 µM.

For the molecule `O=C(Nc1cccc(NC(=O)c2cccnc2)c1)c1cccnc1`, the Potency is inactive: > 76.9 µM.

Turning to `CCn1cc(C(=O)Nc2cc3c(cc2NC(C)=O)OCCO3)c(=O)c2ccc(C)nc21`, the Potency was inactive: > 76.9 µM.

Consider `Cc1c(C(=O)N2CCCCC2)sc(NC(=O)C(C)C)c1C#N`, for which the Potency is inactive: > 76.9 µM.

For the molecule `CC(C)(C)C(=O)Cn1c(=N)n(Cc2ccccc2)c2ccccc21`, the Potency is inactive: > 76.9 µM.

Consider `Cc1nc2ccc(C(=O)N3CCN(c4ccccn4)CC3)cc2s1`, for which the Potency was inactive: > 76.9 µM.

For `CCc1nnc(NC(=O)C2CCN(S(=O)(=O)Cc3ccccc3)CC2)s1`, the Potency is active: 4.26 µM.

`CCOC(=O)N1CCN(C(=O)c2ccc(N(C)S(C)(=O)=O)cc2)CC1`: the Potency is inactive: > 76.9 µM.

For `COc1ccc(-c2n[nH]c(C)c2-c2ccc(OC)c(OC)c2)c(O)c1`, the Potency is inactive: > 76.9 µM.

Consider `C=CCOc1ccc(/C=N/n2cncn2)cc1OC`, for which the Potency was inactive: > 76.9 µM.

Take `CCOC(=O)NCc1ccc(S(=O)(=O)Nc2ccccc2C)cc1`: the Potency is inactive: > 76.9 µM.

As to `O=C(CSc1ccc2nnc(-c3ccc(F)cc3)n2n1)NCC1CCCO1` (stereo not given), the Potency is inactive: > 76.9 µM.

For the molecule `COc1cccc(CSc2nc3sc(C)c(C)c3c(=O)n2Cc2ccco2)c1`, the Potency is inactive: > 76.9 µM.

Consider `CCOc1cc(S(=O)(=O)NCc2ccc3c(c2)OCO3)c(C)cc1C`, for which the Potency was inactive: > 76.9 µM.

`COC(=O)CSc1nsc(SCC(=O)OC)c1C#N`: the Potency was inactive: > 76.9 µM.

As for `COC(=O)[C@H](CCSC)NC(=O)NCc1ccccn1`, the Potency is inactive: > 76.9 µM.

Take `CCCCCOC(=O)Cn1c(SCC(=O)Nc2ccccc2)nc2c1c(=O)[nH]c(=O)n2C`: the Potency is inactive: > 76.9 µM.

For `Cc1cccc2sc(NC(=O)C3CCCN(S(=O)(=O)c4cccc5nonc45)C3)nc12` (stereo not given), the Potency is inactive: > 76.9 µM.

In the case of `O=C(CSc1nc2ccc(Cl)cc2[nH]1)NCc1ccco1`, the Potency was inactive: > 76.9 µM.

As to `C=CCn1c(=O)c2ccccc2n2c(SC(C)C(=O)Nc3nc(-c4ccccc4)cs3)nnc12` (stereo not given), the Potency is inactive: > 76.9 µM.

As to `COc1ccc(OC)c(NC(=O)CSc2nc3cccnc3n2C)c1`, the Potency is inactive: > 76.9 µM.

With `CCOC(=O)c1csc(NC(=O)c2ccc(S(=O)(=O)N3CCCC3)cc2)n1`, the Potency is inactive: > 76.9 µM.

Turning to `O=C(CCC(=O)N1CCCC1)Nc1nnc(C(F)(F)F)s1`, the Potency is inactive: > 76.9 µM.

With `CC1=C(C)C(=O)N(c2ccc(C(=O)O)cc2)C1=O`, the Potency was inactive: > 76.9 µM.

As to `CCN(C(=O)c1cn(C)c(=O)c2cc(OC)c(OC)cc12)c1ccccc1C`, the Potency is inactive: > 76.9 µM.

For `CCOC(=O)c1ccc2c(c1)nc(SCc1cn3ccsc3n1)n2CC`, the Potency is inactive: > 76.9 µM.

`O=C(NCCCN1CCN(c2ccccc2F)CC1)C1CCN(S(=O)(=O)N2CCOCC2)CC1`: the Potency was inactive: > 76.9 µM.

Turning to `Cc1ccc(NC(=O)CSc2nnc(-c3ccccn3)n2C)cc1`, the Potency is inactive: > 76.9 µM.

For `CCc1ccc2c(CN(CC)Cc3nc4ccccc4c(=O)[nH]3)cc(=O)oc2c1`, the Potency was inactive: > 76.9 µM.

In the case of `COC(=O)c1ccc(CSc2nc3c(cnn3-c3ccc(Cl)cc3)c(=O)[nH]2)o1`, the Potency was inactive: > 76.9 µM.

For `Cc1ccc(C)c(N(CC(N)=O)S(C)(=O)=O)c1`, the Potency was inactive: > 76.9 µM.

Consider `CC(=O)Nc1cccc(Oc2cc(C#N)c(C#N)cc2N2CCOCC2)c1`, for which the Potency was inactive: > 76.9 µM.

Take `COc1cc(Br)c(S(=O)(=O)Nc2c(C)n(C)n(-c3ccccc3)c2=O)cc1OC`: the Potency was inactive: > 76.9 µM.

For `C=CCn1c(SCC(=O)NC(=O)NC2CCCC2)nnc1C1CCCCC1`, the Potency is inactive: > 76.9 µM.

For the molecule `COc1nc(Nc2ccc(O)cc2)nc(OC(C(F)(F)F)C(F)(F)F)n1`, the Potency was inactive: > 76.9 µM.

As to `COc1ccc(S(=O)(=O)CCC(=O)NC2CCCCC2)cc1`, the Potency was inactive: > 76.9 µM.

For the molecule `O=C(NC(=O)N1CCN(c2ccccc2F)CC1)c1ccccc1`, the Potency is inactive: > 76.9 µM.

Regarding `Cc1cccc2cc(C(c3nnnn3CC3CCCO3)N3CCCC4(CCCCC4)C3)c(=O)[nH]c12` (stereo not given), the Potency is inactive: > 76.9 µM.

On to `O=[n+]1cc(-c2ccccc2)n([O-])c2c1CCC2`, for which the Potency is inactive: > 76.9 µM.

`Cc1cc(C(=O)Nc2c(C)nn(Cc3c(Cl)cccc3Cl)c2C)no1`: the Potency is inactive: > 76.9 µM.

Regarding `Cn1c(=O)c2c(nc(-n3ccnc3)n2Cc2ccccc2)n(C)c1=O`, the Potency is inactive: > 76.9 µM.

For `COC(=O)c1ccc2ccn(CC(=O)NC(C)C)c2c1`, the Potency is inactive: > 76.9 µM.

As to `Cc1nn(C)c(C)c1S(=O)(=O)N1CCCC(C(=O)NC2CCCCC2)C1` (stereo not given), the Potency is inactive: > 76.9 µM.

As to `CC(C)CC1(C)NC(=O)NC1=O` (stereo not given), the Potency was inactive: > 76.9 µM.

`O=C(CCN1C(=O)C2C3C=CC(C3)C2C1=O)Nc1nccs1` (stereo not given): the Potency is inactive: > 76.9 µM.

Regarding `O=C(O)CCc1ccc(-c2ccc(Br)cc2)n1Cc1ccco1`, the Potency was inactive: > 76.9 µM.

Turning to `O=C(NCC1CCNCC1)c1ccncc1`, the Potency was inactive: > 76.9 µM.

As for `CCOc1ccc(CCNC(=O)CN2CCN(Cc3ccc(F)cc3)C2=O)cc1OCC`, the Potency is inactive: > 76.9 µM.

For `Nc1nnc(SCCN2C(=O)c3ccccc3S2(=O)=O)s1`, the Potency was inactive: > 76.9 µM.

`CCOC(=O)c1cc(-c2cc3ccccc3o2)nc2c1c(=O)[nH]c(=O)n2CCOC`: the Potency was inactive: > 76.9 µM.

For `CC(=O)Nc1c2c3c(cccc3n(C)c1=O)C(=O)c1ccccc1-2`, the Potency is inactive: > 76.9 µM.

As for `COc1ccc(S(=O)(=O)N2CCC(C(=O)NC3CC3)CC2)cc1Cl`, the Potency is inactive: > 76.9 µM.

For the molecule `CCc1ccc2nc3c(c(C(=O)O)c2c1)CCC3`, the Potency was inactive: > 76.9 µM.

For the molecule `O=C(O)CSc1nc2c(c(=O)[nH]1)CCCC2`, the Potency was inactive: > 76.9 µM.

`COc1ccc(CCNc2ncnc3c2oc2ccccc23)cc1OC`: the Potency was inactive: > 76.9 µM.

Turning to `CC(=O)CCc1ccc(OCCCCn2cncn2)cc1`, the Potency is inactive: > 76.9 µM.

Regarding `CS(=O)(=O)N(CC(=O)N1CCOCC1)c1ccc2c3c(cccc13)CC2`, the Potency is inactive: > 76.9 µM.

For `O=C1Cn2c(nc3ccccc32)-c2ccccc2N1`, the Potency is inactive: > 76.9 µM.

Consider `CCOC(=O)c1cc(NC(=O)c2c(C)noc2C)cc(C(=O)OCC)c1`, for which the Potency is inactive: > 76.9 µM.

On to `O=C(Nc1ccc(-c2nc3ccccc3o2)cc1)C1CCCO1` (stereo not given), for which the Potency is inactive: > 76.9 µM.

Regarding `COc1ccc(CNC(=O)c2cc(-c3ccc(OC)c(OC)c3)on2)cc1`, the Potency is inactive: > 76.9 µM.

As for `COc1ccc(-c2nnn(CC(=O)c3c[nH]c4ccccc34)n2)cc1OC`, the Potency was inactive: > 76.9 µM.

With `Cc1ccc2cc(CN(Cc3ccco3)C(=O)c3cccs3)c(=O)[nH]c2c1`, the Potency was inactive: > 76.9 µM.

Regarding `O=C(Nc1cnn(Cc2ccc(Cl)cc2)c1)c1cnccn1`, the Potency was inactive: > 76.9 µM.

With `CCC(NC(=O)Cn1cnc2c(=O)n(C)c(=O)n(C)c21)c1ccccc1` (stereo not given), the Potency is inactive: > 76.9 µM.

Consider `CCCn1c(-c2cccs2)nc2ccccc21`, for which the Potency is inactive: > 76.9 µM.

As to `O=S(=O)(c1cccc2nsnc12)N1CCCC1`, the Potency is inactive: > 76.9 µM.

For `COCC(C)NCc1ccccc1C` (stereo not given), the Potency was inactive: > 76.9 µM.

As for `Cn1cnnc1SCC(=O)Nc1ccccc1C(=O)NC1CCCC1`, the Potency was inactive: > 76.9 µM.
